± gives the standard deviation of the averaged measurements. Laboratory Escherichia coli strains with one amino-acid change in an essential protein, pooled on minimal glucose agar with carbenicillin or gentamicin at twice the control MIC (plus kanamycin and chloramphenicol for the plasmids), 48 h. Fold change of barcode share against drug-free plates; higher = less susceptible. Active = above 20 in both replicates (the paper's putatively resistant). '<' = one read or none on drug, '>' = one read or none on a drug-free plate. Shares are relative, so most strains fall below 1 when a few take over. Listed are strains with at least 15 reads on both drug-free plates, and hits; most hits rest on fewer reference reads. Replicate rank correlation about 0.5. Edits are read from barcodes.
Target: Escherichia coli (laboratory strain)
Experiment: barcode share on antibiotic plates over drug-free plates; higher = less susceptible
Procedure: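 A pool of E. coli strains, each edited to carry one amino-acid change in an essential protein, was grown for 48 h on minimal glucose agar with or without antibiotic; strain barcodes were sequenced; mean of two replicates.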

[1] = antibiotic: carbenicillin, 2× MIC (3.1 µg/mL)
[2] = antibiotic: gentamicin, 2× MIC (MIC 0.45 µg/mL)

Row | Protein | fold change of barcode share [1] | fold change of barcode share [2]
1 | serB V71Q (protein) MPNITWCDLPEDVSLWPGLPLSLSGDEVMPLDYHAGRSGWLLYGRGLDKQRLTQYQSKLGAAMVIVAAWCQEDYQVIRLAGSLTARATRLAHEAQLDVAPLGKIPHLRTPGLLVMDMDSTAIQIECIDEIAKLAGTGEMVAEVTERAMRGELDFTASLRSRVATLKGADANILQQVRENLPLMPGLTQLVLKLETLGWKVAIASGGFTFFAEYLRDKLRLTAVVANELEIMDGKFTGNVIGDIVDAQYKAKTLTRLAQEYEIPLAQTVAIGDGANDLPMIKAAGLGIAYHAKPKVNEKAEVTIRHADLMGVFCILSGSLNQK | 0.392 ± 0.15 | 0.0136 ± 0.003
2 | serB V71D (protein) MPNITWCDLPEDVSLWPGLPLSLSGDEVMPLDYHAGRSGWLLYGRGLDKQRLTQYQSKLGAAMVIVAAWCDEDYQVIRLAGSLTARATRLAHEAQLDVAPLGKIPHLRTPGLLVMDMDSTAIQIECIDEIAKLAGTGEMVAEVTERAMRGELDFTASLRSRVATLKGADANILQQVRENLPLMPGLTQLVLKLETLGWKVAIASGGFTFFAEYLRDKLRLTAVVANELEIMDGKFTGNVIGDIVDAQYKAKTLTRLAQEYEIPLAQTVAIGDGANDLPMIKAAGLGIAYHAKPKVNEKAEVTIRHADLMGVFCILSGSLNQK | 0.549 ± 0.29 | < 0.0078
3 | serB I314A (protein) MPNITWCDLPEDVSLWPGLPLSLSGDEVMPLDYHAGRSGWLLYGRGLDKQRLTQYQSKLGAAMVIVAAWCVEDYQVIRLAGSLTARATRLAHEAQLDVAPLGKIPHLRTPGLLVMDMDSTAIQIECIDEIAKLAGTGEMVAEVTERAMRGELDFTASLRSRVATLKGADANILQQVRENLPLMPGLTQLVLKLETLGWKVAIASGGFTFFAEYLRDKLRLTAVVANELEIMDGKFTGNVIGDIVDAQYKAKTLTRLAQEYEIPLAQTVAIGDGANDLPMIKAAGLGIAYHAKPKVNEKAEVTIRHADLMGVFCALSGSLNQK | 0.228 ± 0.19 | < 0.00774
4 | serB I314Q (protein) MPNITWCDLPEDVSLWPGLPLSLSGDEVMPLDYHAGRSGWLLYGRGLDKQRLTQYQSKLGAAMVIVAAWCVEDYQVIRLAGSLTARATRLAHEAQLDVAPLGKIPHLRTPGLLVMDMDSTAIQIECIDEIAKLAGTGEMVAEVTERAMRGELDFTASLRSRVATLKGADANILQQVRENLPLMPGLTQLVLKLETLGWKVAIASGGFTFFAEYLRDKLRLTAVVANELEIMDGKFTGNVIGDIVDAQYKAKTLTRLAQEYEIPLAQTVAIGDGANDLPMIKAAGLGIAYHAKPKVNEKAEVTIRHADLMGVFCQLSGSLNQK | 0.371 ± 0.0078 | < 0.0152
5 | accD V121A (protein) MSWIERIKSNITPTRKASIPEGVWTKCDSCGQVLYRAELERNLEVCPKCDHHMRMTARNRLHSLLDEGSLVELGSELEPKDVLKFRDSKKYKDRLASAQKETGEKDALVVMKGTLYGMPVAAAAFEFAFMGGSMGSVVGARFVRAVEQALEDNCPLICFSASGGARMQEALMSLMQMAKTSAALAKMQERGLPYISVLTDPTMGGVSASFAMLGDLNIAEPKALIGFAGPRVIEQTVREKLPPGFQRSEFLIEKGAIDMIVRRPEMRLKLASILAKLMNLPAPNPEAPREGVVVPPVPDQEPEA | 0.54 ± 0.14 | < 0.00476
6 | serB F210A (protein) MPNITWCDLPEDVSLWPGLPLSLSGDEVMPLDYHAGRSGWLLYGRGLDKQRLTQYQSKLGAAMVIVAAWCVEDYQVIRLAGSLTARATRLAHEAQLDVAPLGKIPHLRTPGLLVMDMDSTAIQIECIDEIAKLAGTGEMVAEVTERAMRGELDFTASLRSRVATLKGADANILQQVRENLPLMPGLTQLVLKLETLGWKVAIASGGFTFAAEYLRDKLRLTAVVANELEIMDGKFTGNVIGDIVDAQYKAKTLTRLAQEYEIPLAQTVAIGDGANDLPMIKAAGLGIAYHAKPKVNEKAEVTIRHADLMGVFCILSGSLNQK | 0.42 ± 0.17 | 0.00681 ± 0.0058
7 | serB F210W (protein) MPNITWCDLPEDVSLWPGLPLSLSGDEVMPLDYHAGRSGWLLYGRGLDKQRLTQYQSKLGAAMVIVAAWCVEDYQVIRLAGSLTARATRLAHEAQLDVAPLGKIPHLRTPGLLVMDMDSTAIQIECIDEIAKLAGTGEMVAEVTERAMRGELDFTASLRSRVATLKGADANILQQVRENLPLMPGLTQLVLKLETLGWKVAIASGGFTFWAEYLRDKLRLTAVVANELEIMDGKFTGNVIGDIVDAQYKAKTLTRLAQEYEIPLAQTVAIGDGANDLPMIKAAGLGIAYHAKPKVNEKAEVTIRHADLMGVFCILSGSLNQK | 0.751 ± 0.069 | 0.0127 ± 0.0083
8 | serB F210Q (protein) MPNITWCDLPEDVSLWPGLPLSLSGDEVMPLDYHAGRSGWLLYGRGLDKQRLTQYQSKLGAAMVIVAAWCVEDYQVIRLAGSLTARATRLAHEAQLDVAPLGKIPHLRTPGLLVMDMDSTAIQIECIDEIAKLAGTGEMVAEVTERAMRGELDFTASLRSRVATLKGADANILQQVRENLPLMPGLTQLVLKLETLGWKVAIASGGFTFQAEYLRDKLRLTAVVANELEIMDGKFTGNVIGDIVDAQYKAKTLTRLAQEYEIPLAQTVAIGDGANDLPMIKAAGLGIAYHAKPKVNEKAEVTIRHADLMGVFCILSGSLNQK | 3.19 ± 1.9 | 0.0258 ± 0.016
9 | serB F210D (protein) MPNITWCDLPEDVSLWPGLPLSLSGDEVMPLDYHAGRSGWLLYGRGLDKQRLTQYQSKLGAAMVIVAAWCVEDYQVIRLAGSLTARATRLAHEAQLDVAPLGKIPHLRTPGLLVMDMDSTAIQIECIDEIAKLAGTGEMVAEVTERAMRGELDFTASLRSRVATLKGADANILQQVRENLPLMPGLTQLVLKLETLGWKVAIASGGFTFDAEYLRDKLRLTAVVANELEIMDGKFTGNVIGDIVDAQYKAKTLTRLAQEYEIPLAQTVAIGDGANDLPMIKAAGLGIAYHAKPKVNEKAEVTIRHADLMGVFCILSGSLNQK | 1.17 ± 0.093 | 0.0264 ± 0.015
10 | serB F210P (protein) MPNITWCDLPEDVSLWPGLPLSLSGDEVMPLDYHAGRSGWLLYGRGLDKQRLTQYQSKLGAAMVIVAAWCVEDYQVIRLAGSLTARATRLAHEAQLDVAPLGKIPHLRTPGLLVMDMDSTAIQIECIDEIAKLAGTGEMVAEVTERAMRGELDFTASLRSRVATLKGADANILQQVRENLPLMPGLTQLVLKLETLGWKVAIASGGFTFPAEYLRDKLRLTAVVANELEIMDGKFTGNVIGDIVDAQYKAKTLTRLAQEYEIPLAQTVAIGDGANDLPMIKAAGLGIAYHAKPKVNEKAEVTIRHADLMGVFCILSGSLNQK | 0.513 ± 0.044 | 0.0114 ± 0.0068
11 | serB M309A (protein) MPNITWCDLPEDVSLWPGLPLSLSGDEVMPLDYHAGRSGWLLYGRGLDKQRLTQYQSKLGAAMVIVAAWCVEDYQVIRLAGSLTARATRLAHEAQLDVAPLGKIPHLRTPGLLVMDMDSTAIQIECIDEIAKLAGTGEMVAEVTERAMRGELDFTASLRSRVATLKGADANILQQVRENLPLMPGLTQLVLKLETLGWKVAIASGGFTFFAEYLRDKLRLTAVVANELEIMDGKFTGNVIGDIVDAQYKAKTLTRLAQEYEIPLAQTVAIGDGANDLPMIKAAGLGIAYHAKPKVNEKAEVTIRHADLAGVFCILSGSLNQK | 0.534 ± 0.049 | 0.0185 ± 0.0042
12 | serB M309W (protein) MPNITWCDLPEDVSLWPGLPLSLSGDEVMPLDYHAGRSGWLLYGRGLDKQRLTQYQSKLGAAMVIVAAWCVEDYQVIRLAGSLTARATRLAHEAQLDVAPLGKIPHLRTPGLLVMDMDSTAIQIECIDEIAKLAGTGEMVAEVTERAMRGELDFTASLRSRVATLKGADANILQQVRENLPLMPGLTQLVLKLETLGWKVAIASGGFTFFAEYLRDKLRLTAVVANELEIMDGKFTGNVIGDIVDAQYKAKTLTRLAQEYEIPLAQTVAIGDGANDLPMIKAAGLGIAYHAKPKVNEKAEVTIRHADLWGVFCILSGSLNQK | 0.671 ± 0.11 | 0.00833 ± 0.0046
13 | serB M309Q (protein) MPNITWCDLPEDVSLWPGLPLSLSGDEVMPLDYHAGRSGWLLYGRGLDKQRLTQYQSKLGAAMVIVAAWCVEDYQVIRLAGSLTARATRLAHEAQLDVAPLGKIPHLRTPGLLVMDMDSTAIQIECIDEIAKLAGTGEMVAEVTERAMRGELDFTASLRSRVATLKGADANILQQVRENLPLMPGLTQLVLKLETLGWKVAIASGGFTFFAEYLRDKLRLTAVVANELEIMDGKFTGNVIGDIVDAQYKAKTLTRLAQEYEIPLAQTVAIGDGANDLPMIKAAGLGIAYHAKPKVNEKAEVTIRHADLQGVFCILSGSLNQK | 0.684 ± 0.24 | 0.00747 ± 0.0054
14 | serB M309D (protein) MPNITWCDLPEDVSLWPGLPLSLSGDEVMPLDYHAGRSGWLLYGRGLDKQRLTQYQSKLGAAMVIVAAWCVEDYQVIRLAGSLTARATRLAHEAQLDVAPLGKIPHLRTPGLLVMDMDSTAIQIECIDEIAKLAGTGEMVAEVTERAMRGELDFTASLRSRVATLKGADANILQQVRENLPLMPGLTQLVLKLETLGWKVAIASGGFTFFAEYLRDKLRLTAVVANELEIMDGKFTGNVIGDIVDAQYKAKTLTRLAQEYEIPLAQTVAIGDGANDLPMIKAAGLGIAYHAKPKVNEKAEVTIRHADLDGVFCILSGSLNQK | 1.37 ± 0.6 | 0.062 ± 0.072
